Out of some 310,000 compounds screened, about 14,000 (4.5%) showed an effect of 50% or more. Effects have a minus sign here. The list shows a part of the results.
Target: human ether-à-go-go-related gene (hERG) potassium channel (human, UniProt Q12809)
Assay: primary screen, population patch clamp on CHO cells stably expressing hERG
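Also: peak tail current of the secondary pulse compared with the same well before compound.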

Sequence of human ether-à-go-go-related gene (hERG) potassium channel (Q12809 whole entry, looked up): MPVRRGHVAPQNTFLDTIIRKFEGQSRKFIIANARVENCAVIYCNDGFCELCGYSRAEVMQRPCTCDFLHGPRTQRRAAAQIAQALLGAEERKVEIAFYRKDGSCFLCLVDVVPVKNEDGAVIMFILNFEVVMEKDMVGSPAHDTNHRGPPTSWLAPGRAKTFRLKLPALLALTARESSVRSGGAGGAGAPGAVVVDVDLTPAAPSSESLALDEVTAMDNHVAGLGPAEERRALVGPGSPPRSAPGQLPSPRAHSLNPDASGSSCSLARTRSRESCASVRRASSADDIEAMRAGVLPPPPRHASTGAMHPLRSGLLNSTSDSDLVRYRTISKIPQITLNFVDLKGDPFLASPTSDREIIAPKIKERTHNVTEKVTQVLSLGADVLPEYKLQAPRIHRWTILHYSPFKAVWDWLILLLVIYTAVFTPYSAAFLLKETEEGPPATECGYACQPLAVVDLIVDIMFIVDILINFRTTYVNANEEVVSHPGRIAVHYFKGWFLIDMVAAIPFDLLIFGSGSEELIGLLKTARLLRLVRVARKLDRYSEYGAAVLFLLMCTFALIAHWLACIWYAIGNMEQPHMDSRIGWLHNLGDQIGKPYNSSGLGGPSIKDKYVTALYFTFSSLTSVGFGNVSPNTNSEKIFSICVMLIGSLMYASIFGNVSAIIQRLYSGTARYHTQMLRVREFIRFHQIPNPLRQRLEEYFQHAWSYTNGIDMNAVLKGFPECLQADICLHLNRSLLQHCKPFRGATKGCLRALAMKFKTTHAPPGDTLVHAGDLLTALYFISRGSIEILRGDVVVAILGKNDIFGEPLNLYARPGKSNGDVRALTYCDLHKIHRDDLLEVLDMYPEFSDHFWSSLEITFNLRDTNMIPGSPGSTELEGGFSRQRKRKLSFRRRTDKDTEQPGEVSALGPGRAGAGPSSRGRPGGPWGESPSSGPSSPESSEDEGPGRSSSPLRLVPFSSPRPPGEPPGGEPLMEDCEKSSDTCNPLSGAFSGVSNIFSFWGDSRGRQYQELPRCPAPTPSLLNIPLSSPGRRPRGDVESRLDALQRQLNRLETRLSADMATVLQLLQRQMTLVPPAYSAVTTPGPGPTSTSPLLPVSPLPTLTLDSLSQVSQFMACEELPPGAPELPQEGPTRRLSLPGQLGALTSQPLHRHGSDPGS

Going from `O=S(=O)(c1cccs1)N1CCN(c2cccc(Cl)c2)CC1` to `O=C(CCc1ccccc1)N1CCN(c2ccc([N+](=O)[O-])cc2)CC1`, the “hERG current change (%, negative = inhibition) at 10uM” value falls from 9.08% to -73.1%.

Going from `COc1c(Cl)cc(-c2noc(C)c2C(=O)NCc2ccc3c(c2)OCO3)cc1Cl` to `CCCS(=O)(=O)c1cscc1NC(=O)c1c(-c2c(F)cccc2Cl)noc1C`, the “hERG current change (%, negative = inhibition) at 10uM” value falls from 2.73% to -10%.

First: Cc1ccc(NC(=O)c2ccc(-n3cccn3)c([N+](=O)[O-])c2)cc1
Second: Cc1ccc(NC(=O)c2ccc(Cn3cc(Br)cn3)o2)cc1
The “hERG current change (%, negative = inhibition) at 10uM” value of the first is lower: -23.7% for the first, -21% for the second.

First: CCn1c(CSc2nnc3ccccn23)nc2cc(C(=O)O)ccc21
Second: CCCc1nc2ccccc2c(=O)n1CC(=O)c1ccc(OC)cc1
The “hERG current change (%, negative = inhibition) at 10uM” value of the first is lower: -3.91% for the first, 17% for the second.

First: COC(=O)c1ccc(N2C(=O)CC(N3CCC(O)(c4ccc(Br)cc4)CC3)C2=O)cc1 (stereo not shown)
Second: Cn1c2ccccc2n2c(=O)c(=O)n(CC(=O)c3ccc(F)cc3)nc12
The “hERG current change (%, negative = inhibition) at 10uM” value of the first is lower: -8.14% for the first, 2.5% for the second.

Going from `Cc1nc(-c2cccnc2)sc1C(=O)Nc1ccc(C(F)(F)F)cc1` to `O=C(CSc1nnc(-c2ccncc2)n1-c1ccc(Cl)cc1)NCc1cccs1`, the “hERG current change (%, negative = inhibition) at 10uM” value falls from -6.46% to -15.3%.

Going from `CCNc1nc(NCC)nc(OCCNS(=O)(=O)c2ccccc2)n1` to `O=C1COc2ccc(S(=O)(=O)NCc3ccccc3)cc2N1`, the “hERG current change (%, negative = inhibition) at 10uM” value rises from 12.8% to 19.4%.

Going from `COC(=O)C1C(=O)c2c([nH]c(C(=O)OCCSC)c2C)CC1C` (stereo not shown) to `CCC(=O)c1ccc(OCc2ccc(C(=O)OC)cc2)c(OC)c1`, the “hERG current change (%, negative = inhibition) at 10uM” value rises from -17.3% to -11.2%.

Compared with `NC(=O)c1nn(-c2ccccc2)nc1NC(=O)CN1CCCC1`, `O=C(CSc1ncn(-c2ccccc2)n1)Nc1nncs1` is higher in “hERG current change (%, negative = inhibition) at 10uM” value: -14.7% for the first, 10.1% for the second.

Compared with `COc1ccc(C(C)C)cc1S(=O)(=O)n1cnc(C)c1`, `CCN(CC)S(=O)(=O)c1cc(C(=O)Oc2ccccc2OC)ccc1OC` is lower in “hERG current change (%, negative = inhibition) at 10uM” value: -12.6% for the first, -25.5% for the second.

Going from `CCC(C)(C)n1nnnc1C(c1cc(OC)ccc1OC)N1CCC(C(N)=O)CC1` (stereo not shown) to `CC(C)c1ccccc1OCC(=O)N1CCCCCCC1`, the “hERG current change (%, negative = inhibition) at 10uM” value rises from -1.9% to 13%.

Compared with `COc1ccc(CCNC(=O)Cc2ccc(OCc3ccccc3)c(OC)c2[N+](=O)[O-])cc1OCc1ccccc1`, `COc1ccccc1OCCNC(=O)C1CC(=O)N(Cc2ccccc2)C1` (stereo not shown) is lower in “hERG current change (%, negative = inhibition) at 10uM” value: 7.7% for the first, -10.2% for the second.

Going from `Cc1ccc(S(=O)(=O)N(C)c2ccc(OCC(=O)Nc3nc4c(ccc5ccccc54)s3)cc2)cc1` to `O=C(CN(Cc1ccccc1)S(=O)(=O)c1ccc(F)cc1)NCc1ccncc1`, the “hERG current change (%, negative = inhibition) at 10uM” value falls from 5.08% to -52.3%.

First: Cc1ncc(CO)c2cc(C(N)=O)c(=Nc3ccccc3)oc12
Second: Clc1ccc(OCc2nn3c(-c4ccccc4)nnc3s2)c(Cl)c1
The “hERG current change (%, negative = inhibition) at 10uM” value of the first is lower: -27.7% for the first, -10.6% for the second.

Compared with `CCOC(=O)N1CCC(N2Cc3cccc(C(=O)NCc4ccccn4)c3C2=O)CC1`, `COc1ccc(/C=C/C(=O)NCc2ccccn2)cc1` is higher in “hERG current change (%, negative = inhibition) at 10uM” value: -34.5% for the first, -3.07% for the second.

Going from `O=[N+]([O-])c1ccccc1S(=O)(=O)Nc1ccc(-c2ccc(N3CCOCC3)nn2)cc1` to `O=C(CSc1nc2cc(S(=O)(=O)N3CCOCC3)ccc2o1)Nc1c(F)cccc1F`, the “hERG current change (%, negative = inhibition) at 10uM” value rises from -11.8% to 3.71%.

Compared with `Cn1c(N)c(C(=O)COC(=O)COc2ccc3ccccc3c2)c(=O)n(C)c1=O`, `COc1ccccc1NC(=O)COc1ccc(C(=O)OCC(=O)N2CCCC2=O)cc1OC` is higher in “hERG current change (%, negative = inhibition) at 10uM” value: -8.66% for the first, 3.01% for the second.

Going from `Cc1ccccc1OCC(=O)Nc1nnc(COc2ccccc2)s1` to `COc1ccc(S(=O)(=O)c2ccccc2)cc1NC(=O)c1c(F)cccc1F`, the “hERG current change (%, negative = inhibition) at 10uM” value falls from 14.1% to -5.26%.

Compared with `Cn1c(=O)c2c(nc(CN3CCc4ccccc4C3)n2Cc2ccc(F)cc2)n(C)c1=O`, `CC1(c2ccccc2Br)NC(=O)N(CC(=O)Nc2ccc(S(N)(=O)=O)cc2)C1=O` (stereo not shown) is higher in “hERG current change (%, negative = inhibition) at 10uM” value: -26.5% for the first, 23.7% for the second.

Compared with `OCCOCCN1CCN(C(=S)Nc2ccccc2)CC1`, `CC(C)C(=O)Nc1cccc(NC(=S)NC(=O)c2ccccc2Cl)c1` is lower in “hERG current change (%, negative = inhibition) at 10uM” value: 21.8% for the first, -9.02% for the second.

First: CCn1c(-c2cc(OC)c(OC)c(OC)c2)n[nH]c1=S
Second: COc1cc(OC)c(OC)cc1CNCc1ccco1
The “hERG current change (%, negative = inhibition) at 10uM” value of the first is higher: 12.1% for the first, 8.08% for the second.

In the case of `Cc1ccc(/C([O-])=C(/C(=S)NCc2ccco2)[n+]2ccccc2)cc1[N+](=O)[O-]`, the “hERG current change (%, negative = inhibition) at 10uM” value is reported as -18%.

Reference: article PMC4336329 (PLoS ONE, 2015)
